In the supplement of paper PMC3724861:
This is one part of the list.

Tested on: T1, Caupolican (Caup) homeodomain DNA-binding domain
T1 sequence: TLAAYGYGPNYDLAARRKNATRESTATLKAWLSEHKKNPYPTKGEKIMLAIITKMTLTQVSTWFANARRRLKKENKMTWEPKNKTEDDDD
Assay: PBM E-score (8-mer, recovered from the published 9-mer minima) (E-score (dimensionless, -0.5 to 0.5)); Drosophila protein; higher = stronger relative binding preference, active = 0.31 or more
Description: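 Protein binding microarray (PBM): in vitro transcribed/translated Caupolican (Caup) homeodomain DNA-binding domain (residues 214-303) applied at 100 nM to a universal 8-mer PBM array (Agilent AMADID 015681). The 8-mer enrichment score (E-score, range -0.5 to 0.5) was computed, and each 9-mer score is the minimum E-score of its two constituent 8-mers. The E-score is the same for a 9-mer and its reverse complement; 0.31 is the stated binding threshold.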

| Sequence | PBM E-score |
| --- | --- |
| CTTACTGA | inactive: 0.0357 |
| CGTTATGC | inactive: -0.0174 |
| AGTACCGC | inactive: 0.0483 |
| ATGGTCGG | inactive: -0.017 |
| ATTGTCTG | inactive: 0.142 |
| GTGCACAA | inactive: 0.0769 |
| GGTTTAAA | inactive: 0.118 |
| ACGTCGAA | inactive: -0.0527 |
| AAGTCCGT | inactive: -0.0401 |
| CAGAAAGC | inactive: -0.0118 |
| CAATATAG | inactive: 0.149 |
| CTGCACTA | inactive: -0.0752 |
| AGGCATAA | inactive: -0.0593 |
| GAAAGTGA | inactive: 0.0715 |
| AACCAGAA | inactive: 0.0845 |
| AGATCTTG | inactive: 0.0852 |
| AACTCTGA | inactive: 0.0245 |
| ACTAGGAC | inactive: 0.104 |
| AGCGCAAT | ≥ -0.00045 |
| AAATTACT | inactive: 0.124 |
| CTGAATTA | inactive: 0.0828 |
| CTGCTAGC | inactive: -0.102 |
| CCGACCAC | inactive: -0.00916 |
| TCACAGCA | inactive: 0.0454 |

| Sequence | PBM E-score |
| --- | --- |
| AAAGTAAT | inactive: 0.145 |
| AGAAGTAC | inactive: 0.0883 |
| GAGATCAC | inactive: 0.0775 |
| TGCGCAAA | inactive: -0.112 |
| AACACACA | active: ≥ 0.313 |
| GAATTAGC | inactive: 0.0316 |
| GCGGTACC | inactive: -0.14 |
| TGCCAGCA | ≥ -0.0467 |
| GTCGTGAA | inactive: 0.0715 |
| CAAGCACA | inactive: 0.0876 |
| AATAATTG | inactive: 0.0801 |
| CAAGGTTA | inactive: 0.0455 |
| CAGACCAA | inactive: -0.0774 |
| ACCTCCGC | inactive: -0.179 |
| CCGTACGG | inactive: -0.112 |
| ACAGTGGG | inactive: -0.0749 |
| AAAGTATA | inactive: 0.136 |
| CTTGTTCA | active: 0.33 |
| CAACAGGG | inactive: 0.0597 |
| AACGGCGG | inactive: -0.15 |
| AGCGACCG | inactive: -0.0911 |
| GTGCCTAA | inactive: -0.0543 |
| AATGATAT | inactive: 0.129 |
| AGGGACAT | inactive: 0.249 |

| Sequence | PBM E-score |
| --- | --- |
| GACGGCTA | inactive: -0.167 |
| ACAGAGTG | inactive: 0.109 |
| AGAATAAA | inactive: 0.133 |
| ATGCGTCG | inactive: 0.0334 |
| TAAGAATA | inactive: 0.0684 |
| GCAAAATA | inactive: 0.0822 |
| CATGCCCG | inactive: -0.0275 |
| CGCAATGA | inactive: 0.0631 |
| GGTCGACC | inactive: -0.123 |
| CTTCTTCA | inactive: -0.0456 |
| GCAATAGC | inactive: -0.0338 |
| CATCATAA | inactive: 0.177 |
| CTAATGAC | inactive: 0.0539 |
| CCAGAAAA | inactive: -0.00907 |
| CCGTGGTA | inactive: 0.134 |
| AACGGCCC | inactive: -0.282 |
| ACGGTATC | inactive: 0.00523 |
| ATCGTGAA | inactive: -0.00203 |
| CAGTAAAA | inactive: 0.0217 |
| CAACAACG | inactive: 0.227 |
| CCTTTAGA | inactive: -0.0722 |
| CCGATAGA | inactive: -0.0623 |
| CAGTATCG | inactive: 0.0297 |
| ACAAGCCA | inactive: 0.213 |

| Sequence | PBM E-score |
| --- | --- |
| ACCTATTA | inactive: 0.129 |
| ATAAACTC | inactive: 0.0627 |
| CTGCTGGA | inactive: -0.111 |
| CCATGACA | inactive: 0.137 |
| CTCGTGCC | inactive: -0.165 |
| AGGCAATG | inactive: -0.0488 |
| CCCTGGCG | inactive: -0.212 |
| CGGCAAGC | inactive: -0.13 |
| CCGCACAG | inactive: -0.187 |
| ATTCATAA | inactive: 0.133 |
| ATATCCTC | inactive: 0.00247 |
| AGGGTGAC | inactive: -0.144 |
| CTATATCC | inactive: -0.0149 |
| GACCTTAA | inactive: -0.0126 |
| AGGGTGAG | inactive: -0.214 |
| CAACTTGG | inactive: -0.014 |
| AGAGTACT | inactive: 0.00038 |
| CGACATTC | inactive: 0.191 |
| GTAATCAA | inactive: 0.2 |
| CTATTCGC | inactive: -0.0183 |
| GAGGTACA | active: 0.326 |
| AAGGGGTC | ≥ -0.0704 |
| GCAGACGC | inactive: -0.18 |
| AACTGAAT | inactive: 0.0483 |

| Sequence | PBM E-score |
| --- | --- |
| CTCGTCGA | inactive: -0.0232 |
| GCCTCCCC | inactive: -0.269 |
| AACTATCT | inactive: 0.0956 |
| CCCCCTGC | inactive: -0.299 |
| CTGAGCAC | inactive: 0.0158 |
| AGTCCTGC | inactive: -0.00191 |
| AGGTGGAA | inactive: 0.046 |
| CCTATAAG | inactive: -0.0649 |
| ACAGATCC | inactive: 0.0587 |
| ACAAGTCG | inactive: 0.205 |
| AAACACGT | active: 0.312 |
| AGTTTAGA | inactive: 0.0189 |
| AGGCACTA | inactive: -0.0995 |
| AGGATACC | inactive: -0.0619 |
| AGCTAGCG | inactive: -0.204 |
| ATACGTCC | inactive: -0.086 |
| AATCAATT | inactive: 0.127 |
| AATTCTAG | inactive: 0.0641 |
| CTCGGCAA | inactive: -0.0797 |
| ACCGAAGA | ≥ 0.00377 |
| CAAGCAAC | inactive: 0.0807 |
| CTTTATCC | inactive: -0.0399 |
| GTAACGTA | inactive: 0.198 |
| ATTGGCTA | inactive: -0.0305 |

| Sequence | PBM E-score |
| --- | --- |
| CTCTGGCC | inactive: -0.252 |
| ATGATACG | inactive: 0.144 |
| GTGACCAA | inactive: -0.00763 |
| GAACCCAC | inactive: -0.108 |
| TGTACCAA | active: 0.312 |
| ACCGGCCG | inactive: -0.188 |
| AGATTTCG | inactive: -0.0539 |
| CATTTCTA | inactive: 0.102 |
| AGAGTTGA | inactive: -0.0246 |
| GAAGTCCC | inactive: -0.213 |
| GACGGGAA | inactive: -0.0636 |
| TATGACCA | ≥ 0.135 |
| CGTGTAAG | active: 0.333 |
| CCCAGGAC | inactive: -0.118 |
| GCGTGCCA | inactive: -0.16 |
| ATACTATC | inactive: 0.162 |
| GATTCCAA | inactive: -0.0321 |
| CCTCCGTC | inactive: -0.155 |
| GAAGTGTA | inactive: 0.0941 |
| ACGCTATC | inactive: -0.0224 |
| AGTAGACG | inactive: 0.0495 |
| AATACTAC | inactive: 0.207 |
| ACAGGACG | inactive: 0.0904 |
